Laboratory results taken from the supplement of paper PMC11417369.
± gives the standard deviation of the averaged measurements. The list shows a part of the results.

Tested on: PfAP2-EXP AP2 domain (GST-tagged)
Assay: gcPBM binding intensity (ln(normalized median fluorescence intensity)); higher = stronger DNA binding
Summary of the method: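 Plasmodium falciparum DNA-binding domains carrying a GST tag were expressed in E. coli and applied for 1 h, at about 25 μg on average, to an Agilent 4 × 180k array. The array held primer-extended double-stranded 36-bp intergenic genomic probes together with negative controls, and binding took place in 1× PBS with 1% milk, 0.2 mg/ml BSA, 0.5% salmon testes DNA and 0.03% Triton X-100. An Alexa488 anti-GST antibody detected bound protein, and the array was scanned at 488 nm. Binding intensity is taken as the highest Masliner-normalised natural-log median intensity across replicate spots of either probe orientation.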

Sequence	gcPBM binding intensity (ln)
TAAATATCAAAACACACACACAAAAGTGAATAAATA [CACACA_site3762]	8.71 ± 0.49
AAAAAAAAAAAAAACACACACACACCCACATATACA [CACACA_site2663]	8.53 ± 0.2
ATTTTTTTCTTAGGAGTGCACTTATATTTATTTTAT	9.12 ± 0.11
TATTAATTAAACCATACACACATAACTTTTTTATAA [CACACA_site6526]	8.29 ± 0.38
TAAAGAGAAAAACATACACACACAACAAAATATGTA [CACACA_site8872]	8.78 ± 0.55
AGGAACATAAGCAATGTATAAACATAAAACTATAAT [CACACA_negctrl_site1832]	8.76 ± 0.52
TATAAGGTGTCCTATACACACTCCAATAAATATATA [CACACA_site2091]	8.38 ± 0.4
AATAATTTTTAAATATAAACATTTTTTTTTTTTTTT [GTGCAC_negctrl_site532]	8.12 ± 0.18
ATTAAATGCACATATACACACACCCAATTTTAAGTT [CACACA_site3049]	8.8 ± 0.23
ACAAAATAAACCACGTGTACAAATTTATAATGTGTA [XGTACX_site1153]	8.71 ± 0.5
ATATATATATATTCCACACACACACCCAAAAAAAAA [CACACA_site3649]	9.885 ± 0.078
ATAAAATATTAGACATTTATTAATATTACACATATC [XGTACX_negctrl_site364]	8.23 ± 0.34
TTTTATTTTTTATTTGCACACAATATGTAAAAAAAT [CACACA_site2927]	8.71 ± 0.16
ATATTTATGGAAAAAGAACACACAATCAAACAAAAA [CACACA_site9233]	8.98 ± 0.5
TCAAAAGAATAATTGGTGCAAATTATATAATATAAT [GTGCAC_site9804]	8.73 ± 0.19
CTTTTTTATATCTCTACACACATTTATAACCATTTG [CACACA_site4897]	8.76 ± 0.52
ATACATTTATTGTATTGTACATAATATTATATATTC [XGTACX_site7115]	8.6 ± 0.35
TATTTTAAAAAAAAAAGTACACATAATATATATAAC [XGTACX_site5416]	8.64 ± 0.26
TAATATAATGATGCAGTGCATATGTTAAAATGAAAA	8.97 ± 0.25
TAATATAATAGAAGTGTACACACATATTTATGGGTG [CACACA_site9023]	8.78 ± 0.28
AATTAGATTTACTGAAGTACTTAATTTATTTTATTA [XGTACX_site3407]	8.85 ± 0.34
AATAATCTATATTGTACACACAAAATGGGAAAAAAA [CACACA_site6969]	8.81 ± 0.36
AGGTACTTTTTTAAAACACACATATAACATATACAC [CACACA_site6629]	8.76 ± 0.28

Sequence	gcPBM binding intensity (ln)
ACCCCCAATACGGAAACACACAAGTTATTTTATCAT [CACACA_site8874]	9.78 ± 0.66
TTAAATGAAAAATGGGGTACATATATACAAATATAT [XGTACX_site5931]	8.61 ± 0.42
TGTTTATTTTTAAAAAGTACATATATAAAAAATATC [XGTACX_site4902]	8.6 ± 0.13
ATAATTTGGAAACACACACACACACCCACATATATA [CACACA_site2286]	8.84 ± 0.67
TGATTATACGCACGCGCACACACAACCAAAAAAAAA [CACACA_site3537]	8.7 ± 0.15
AAAAAAAAATACTACTGTACTTTTTTTGGACATCTA [XGTACX_site1096]	8.12 ± 0.22
AAAAAAGGAAAAGATACACACCGTAAATTAAAATTT [CACACA_site5908]	8.59 ± 0.4
GAAGGAATATACAATTGTACTTGGCAAAAAAAAAAA [XGTACX_site1884]	8.74 ± 0.67
ATATATTTATATATTACACACAATATTGTACAGATA [CACACA_site8215]	8.8 ± 0.31
AAATACTTGTCATATTGTACATGTTTGTGATATATA [XGTACX_site3185]	8.48 ± 0.32
GTTAAGAATATATAATGTACTTATTTTAATATAGTA [XGTACX_site6088]	8.09 ± 0.26
ATATATATATATATATGTACATATTGTATTAATTAT [XGTACX_site1919]	10.1 ± 0.39
TCTTTTAAACAGTACACACACACATCTATATTTATA [CACACA_site6559]	8.755 ± 0.078
CTCTGTTGTCTTAGTTGTACAATAGAAAAAAATAAT [XGTACX_site7043]	8.77 ± 0.39
TACAGGAATATTTTTACACACTAAAAATTATAAAAT [CACACA_site1649]	8.38 ± 0.38
TGATTGAGTAAAATGGGTACATATACACTATTACAT [XGTACX_site5232]	8.38 ± 0.38
TTTTTTACTTTTGAGACATTTCATATTTTTATTCAC [GTGCAC_negctrl_site730]	8.48 ± 0.49
ATATTGTATTTATGTACACACATTTTTGGAATATGA [CACACA_site4861]	9.11 ± 0.53
TTTTTTCTCTGTGGCTGTACTTTGAAGATATTTTAT [XGTACX_site8243]	8.92 ± 0.42
AAAGGTTCACATTATATAGTTATGTAATATATATGT [CACACA_negctrl_site542]	8.29 ± 0.4
TAAAATATATATATGTGTACATAACATATAATTTTT [XGTACX_site1725]	8.12 ± 0.25
TTATTTAGTATATTATGTACATACAATGCCTGGGAA [XGTACX_site4578]	8.79 ± 0.32
TATTGTTGTTCATGTACACACTATAATAAAAGCAAT [CACACA_site6148]	8.93 ± 0.39

Sequence	gcPBM binding intensity (ln)
AGTATAAAAATATATTTACACACTATATATATCGAA [CACACA_site8494]	8.46 ± 0.44
ATATGTTACAGACACACACACACATAAAAAAACAAA [CACACA_site3248]	8.84 ± 0.69
TTTTCATATTATAGTGCACACAAAAATATATATATG [CACACA_site8929]	9.35 ± 0.057
TATATTGAATGCAAAAGTACATTTGTGTAAATTTAT [XGTACX_site7611]	8.56 ± 0.33
TGATGGTTACGTTTATGTACACATTACAGTTAGTAT [XGTACX_site998]	8.34 ± 0.42
TTTTTTTTTTTAAAATGTACACGTAATTACATATAT [XGTACX_site752]	8.63 ± 0.42
TTTTTGTATTCTACCTTAACAATCTTAAAGATTTTT [CACACA_negctrl_site1157]	8.56 ± 0.34
GAGTTAATATTTAAAAGTACAAGATGAATGTAAAAA [XGTACX_site5810]	8.76 ± 0.46
AAAATATATTAAGGCACACACATACATATATATATA [CACACA_site3723]	9.86 ± 0.18
TTAAAAATTATATAAGTGCATTAATATTTAGAACAA [GTGCAC_site9773]	8.71 ± 0.028
ACTACATTATTGCATTGTACTTTTTTTTTTTTTTTA [XGTACX_site4605]	8.82 ± 0.4
TACTTACCAAAATACACACACACACCCAATATATAA [CACACA_site1871]	8.62 ± 0.51
TTAAAAATATATGAATGTACATATATTTATATATAT [XGTACX_site77]	8.5 ± 0.099
TTTAAATTATGAAATTGTACATATAAAAATATTTTA [XGTACX_site4796]	8.39 ± 0.3
TTTTTTTTATTAGTGTGTACGCATTTATTTATACAT [XGTACX_site1599]	8.86 ± 0.33
TATATATTATTTAAAACACACAAAAAAAAAAATTAT [CACACA_site89]	8.55 ± 0.45
ATATCGGGTGCATTAACACACATTTATTTGAATAAA [CACACA_site2350]	9.28 ± 1
TAAAATATAATAAAATGTACACGCATGCAATAGAAT [XGTACX_site7434]	9.99 ± 0.47
GCTTCTTAGTATACTTTATAAAATATATATTAAATA [XGTACX_negctrl_site57]	8.75 ± 0.47
ATATTAAATATAATTTGTACGCATTTTTTTTTTTTT [XGTACX_site1910]	8.46 ± 0.35
TTTATAAATATATATACACACACATATATATTATAT [CACACA_site8099]	8.42 ± 0.38
ATATATCATAATAGAGGTACACATATTATATATATA [XGTACX_site782]	8.96 ± 0.17
TTCCCTTTTTTTATTTGTACTTATCTTTTAAATAAT [XGTACX_site2497]	8.99 ± 0.47

Sequence	gcPBM binding intensity (ln)
AATTATAATTAATAGAGTACTGAATATATATATATA [XGTACX_site8683]	10 ± 0.33
AGCATTTTTCATTTTGCACACATGTTTTATGTGTAT [CACACA_site3454]	9.025 ± 0.007
AAAAAAAAAAAAAAGACACACATATATATATATATA [CACACA_site633]	10 ± 0.31
AATATTACAAAATATTGTCCGTACAAATTTTTAATA [XGTACX_site8129]	8.31 ± 0.3
GATGATAAAATATGTACACACAGTTTATACATTTTG [CACACA_site4055]	8.37 ± 0.23
TCTGTTAATATTTATACACACATATTTATTTATATA [CACACA_site6658]	8.54 ± 0.33
ATTTTGAAAAATAAAAGTACATATAATATATCTACA [XGTACX_site7185]	8.1 ± 0.071
TTAACATATTATAAGTGTACATATTTATAAACAAGA [XGTACX_site8806]	8.62 ± 0.46
ATATACATATATATGGGTACATATATTAATATATAT [XGTACX_site8358]	8.48 ± 0.34
TTTAGATATATGGTAGTGCATAATAAAAATATAGCC [GTGCAC_site9449]	8.755 ± 0.064
CACTCCATATTATACACACACACAAATGAAAAAAAT [CACACA_site3019]	8.91 ± 0.37
TTAATAAACCTTAGATGTACAGTTATATATAAAATA [XGTACX_site6681]	8.54 ± 0.52
ATATATATATATATATGTACACATATATGTGTTTGT [XGTACX_site62]	10.1 ± 0.26
TGAACTCACGAGCACACACACACATATATATATATA [CACACA_site8248]	10.2 ± 0.34
ATACAATAAAGGTGTACACATATATGATGCAAGATG [CACACA_site5897]	9.21 ± 0.34
ATATATATTTTTTAATGTACTTATATTTTTATAATA [XGTACX_site2103]	8.47 ± 0.26
GGTCATATTTTTTGCACACAAAAAAAAATATAAAAT [CACACA_site3381]	8.47 ± 0.28
AATTAAACTCACACCACACACAAAAAAAAAAAAAAA [CACACA_site693]	8.29 ± 0.44
AGCAATTGTGTTTTCACACATAAATATATTCCTCAC [CACACA_site5021]	8.65 ± 0.43
AGTGTAGGTATATAAACACACATACAGATATATAAT [CACACA_site4900]	8.85 ± 0.41
